Experimental data from patent US20250221953A1 (The University of Chicago, priority 2022, published 2025).

These compounds were tested on PD-1^+ Jurkat T cells co-cultured with H596 (PD-L1^+) cells (assay: 1st screen 1b: rescue of PD-L1/PD-1 dependent exhaustion of PD-1+ Jurkat T cells in co-culture (IL-2 ELISA)). Settings: 20 μM TVA; co-cultured H596, H460 lung cancer cells or A375 melanoma cells.
Type: cell-based, human

| Compound | PD-L1/PD-1-dependent exhaustion of Jurkat T cells, assessed by IL-2 production |
| --- | --- |
| CCCCCC/C=C/CCCCCCCCCC(=O)O [TVA, trans-vaccenic acid] | rescued PD-L1/PD-1-dependent exhaustion |

Same assay, conditions: 1st screen 1b (Table 4): rescue of PD-L1/PD-1 dependent exhaustion of PD-1 expressing Jurkat T cells co-cultured with PD-L1-expressing H596 cells

| Compound | Relative changed percentage (%) |
| --- | --- |
| c1ncc2[nH]cnc2n1 [PURINE] | −47.53 |
| Cc1ncc(CO)c(CO)c1O [PYRIDOXINE] | −33.18 |
| c1cncnc1 [PYRIMIDINE] | −7.98 |
| CC(=O)C(=O)O [PYRUVIC ACID] | 13.11 |
| CCCCCCCCCCCCCCCC(=O)O [Palmitic Acid] | −86.34 |
| CCCCCC/C=C\CCCCCCCC(=O)O [Palmitoleic acid] | −82.7 |
| O=C([O-])CC(O)(CC(=O)[O-])C(=O)[O-].[K+].[K+].[K+] [Potassium Citrate] | −17.95 |
| O=C([O-])[C@H](O)[C@@H](O)[C@H](O)[C@H](O)CO.[K+] [Potassium Gluconate] | −41.51 |
| O=P([O-])([O-])O.[K+].[K+] [Potassium Phosphate Dibasic] | −4.5 |
| COc1cc(/C=C/c2ccc(O)cc2)cc(OC)c1 [Pterostibene] | −66.85 |
| Cc1ncc(CO)c(C=O)c1O.Cl [Pyridoxal Hydrochloride] | 42.34 |
| Cc1ncc(CO)c(CO)c1O.Cl [Pyridoxine Hydrochloride] | 96.19 |
| O=c1c(O)c(-c2ccc(O)c(O)c2)oc2cc(O)cc(O)c12 [Quercetin] | −55.67 |
| Oc1ccc(C=Cc2cc(O)cc(O)c2)cc1 [Resveratrol] | −46.18 |
| C[C@@H]1O[C@@H](OC[C@H]2O[C@@H](Oc3c(-c4ccc(O)c(O)c4)oc4cc(O)cc(O)c4c3=O)[C@H](O)[C@@H](O)[C@@H]2O)[C@H](O)[C@H](O)[C@H]1O [Rutoside trihydrate] | −33.86 |
| [Br-].[Na+] [SODIUM BROMIDE] | −24.92 |
| [Cl-].[Na+] [SODIUM CHLORIDE] | 38.77 |
| CCCCCCCCCCCCC/C=C/[C@@H](O)[C@H](COP(=O)([O-])OCC[N+](C)(C)C)NC(=O)CCCCCCCCCCCCCCC [SPHINGOMYELIN/SM(d18:1/16:0)] | −49.66 |
| OC[C@H]1O[C@@](CO)(O[C@H]2O[C@H](CO)[C@@H](O)[C@H](O)[C@H]2O)[C@@H](O)[C@@H]1O [SUCROSE] | −13.14 |
| [F-].[Na+] [Sodium Fluoride] | 9.588 |
| [Na+].[Na+].[O]=[Mo](=[O])([O-])[O-] [Sodium Molybdate] | −25.53 |
| O=C([O-])CC(O)(CC(=O)[O-])C(=O)[O-].[Na+].[Na+].[Na+] [Sodium citrate] | −60.77 |
| CCCCCCCCCCCCCCCCCC(=O)O [Stearic Acid] | −85.81 |
| CC/C=C\C/C=C\C/C=C\C/C=C\CCCCC(=O)O [Stearidonic Acid] | 22.77 |

| Compound | Relative changed percentage (%) |
| --- | --- |
| Cn1cnc2c1c(=O)[nH]c(=O)n2C [THEOBROMINE] | 211.6 |
| Cc1ncc(C[n+]2csc(CCO[P@](=O)(O)OP(=O)(O)O)c2C)c(N)n1 [THIAMINE PYROPHOSPHATE] | −9.507 |
| Cc1cn([C@H]2C[C@H](O)[C@@H](CO)O2)c(=O)[nH]c1=O [THYMIDINE] | 162.2 |
| [Cl][Sn][Cl] [TIN(II) CHLORIDE/Tin, TIN(II) CHLORIDE] | 66.3 |
| CC1=CC(=O)C(C(C)C)=CC1=O [Thymoquinone] | −82.31 |
| C[N+](C)(C)CC(=O)[O-] [Trimethylglycine] | −55.82 |
| O=c1cc[nH]c(=O)[nH]1 [URACIL] | −26.98 |
| NC(N)=O [UREA] | −16.84 |
| O=c1[nH]c(=O)c2[nH]c(=O)[nH]c2[nH]1 [URIC ACID] | −20.63 |
| COc1c(O)c(C)c(C/C=C(\C)CC/C=C(\C)CC/C=C(\C)CC/C=C(\C)CC/C=C(\C)CC/C=C(\C)CC/C=C(\C)CC/C=C(\C)CC/C=C(\C)CCC=C(C)C)c(O)c1OC [Ubiquinol] | −52.05 |
| CC1=C(C/C=C(\C)CCC[C@H](C)CCC[C@H](C)CCCC(C)C)C(=O)c2ccccc2C1=O [VITAMIN K1] | −3.136 |
| [Cl-].[Cl-].[Zn+2] [ZINC CHLORIDE] | −51.17 |
| CC1=C(/C=C/C(C)=C/C=C/C(C)=C/C=C/C=C(C)/C=C/C=C(C)/C=C/C2=C(C)C[C@@H](O)CC2(C)C)C(C)(C)C[C@H](O)C1 [Zcaxanthin] | 14.04 |
| O=C([O-])CC(O)(CC(=O)[O-])C(=O)[O-].O=C([O-])CC(O)(CC(=O)[O-])C(=O)[O-].[Zn+2].[Zn+2].[Zn+2] [Zinc Citrate] | 9.378 |
| [O]=[Zn] [Zinc Oxide] | −16.87 |
| CC1=C(/C=C/C(C)=C/C=C/C(C)=C/C=C/C=C(C)/C=C/C=C(C)/C=C/C2=C(C)CCCC2(C)C)C(C)(C)CCC1 [all trans B carotene] | −3.188 |
| O=C(O)CCCCC1CCSS1 (stereo not drawn) [alpha-lipoic acid] | 20.02 |
| O=C(O)CCCC[C@@H]1SC[C@@H]2NC(=O)N[C@@H]21 [d-Biotin] | 5.045 |
| CCCCC/C=C\C/C=C\CCCCCCCC(=O)O [linoleic acid] | −73.48 |
| [Cl-].[Cl-].[Sr+2] [strontium chloride] | −23.15 |
| O=C(O)[C@@H]1C[C@@H](O)CN1 [trans-4-Hydroxy-L-proline] | 31.9 |
| ALPHA 1 ANTITRYPSIN, HUMAN PLASMA | −5.419 |
| ARG8-VASOPRESSIN ACETATE SALT | −5.419 |
| Alpha-Tocopherol [(+/−)-A-TOCOPHEROL/Alpha-Tocopherol] | −56.14 |

| Compound | Relative changed percentage (%) |
| --- | --- |
| Bilirubin Mixed Isomers | 98.65 |
| Bromelain from pineapple stem | 23.01 |
| C-PEPTIDE FRAGMENT 3-33, HUMAN [C-PEPTIDE FRAGMENT 3-33, HUMAN/C-peptide] | −56.9 |
| Chromium picolinate | 24.01 |
| Collagen type II | −25.47 |
| Copper Gluconate | 7.218 |
| D-(+)-MALTOSE MONOHYDRATE | 63.15 |
| D-Glycerate 2,3-diphosphate sodium salt | 92.25 |
| Eicosatrienoic Acid | −33.55 |
| FERRITIN TYPE IV FROM HUMAN LIVER | 146.7316 |
| Gelatin | 1.989 |
| Iron Gluconate | 33.44 |
| L-A-PHOSPHATIDYLCHOLINE TYPE XVI-E | 36.39 |
| L-A-PHOSPHATIDYLETHANOLAMINE TYPE I | −49.98 |
| LEPTIN | −6.601 |
| Magnesium citrate | 2.333 |
| PROINSULIN C-PEPTIDE (55-89) [PROINSULIN C-PEPTIDE (55-89)/c-peptide] | −5.534 |
| SULFUR/sulfide | −39.76 |
| Sphingomyelin | −6.342 |
| THYROCALCITONIN SALMON/calcitonin | 39.43 |
| VASOACTIVE INTESTINAL PEPTIDE | −38.68 |
| Zinc Picolinate | −14.86 |

Same assay, conditions: 1st screen 1b (Table 4): rescue of PD-L1/PD-1 dependent exhaustion of PD-1 expressing Jurkat T cells co-cultured with PD-L1-expressing H596 cells; hemicalcium salt

| Compound | Relative changed percentage (%) |
| --- | --- |
| D-Pantothenic Acid, hemicalcium salt | 67.41 |

Same assay, conditions: 1st screen 1b (Table 4): rescue of PD-L1/PD-1 dependent exhaustion of PD-1 expressing Jurkat T cells co-cultured with PD-L1-expressing H596 cells; listed as D-PANTOTHENIC ACID HEMICALCIUM, hemicalcium salt

| Compound | Relative changed percentage (%) |
| --- | --- |
| D-Pantothenic Acid, hemicalcium salt | −48.47 |
